Source: the RNAGym collection of RNA variant scans (doi:10.7554/elife.90254)
The source gives no read counts; variants with many changes may rest on few reads.

B1: LINE1-mini (parent)
chain: GGCAGAGCUCAACACAGCGUGGCAAAGUGGCUGUGGCUAGACUGCC

Variants of: B1
Assay: self-cleavage, relative activity (ratio to wild type); higher = more cleavage; in vitro, sequencing; the parent is a self-cleaving ribozyme
For G22U U34G C45A C46A, the self-cleavage was 0.04.
For G22U C31A C37G U43C, the self-cleavage was 0.15.
Work on G1U A25G A26G U28A yielded a self-cleavage of 0.03.
Work on A4G G19A U28A A39C yielded a self-cleavage of 0.07.
With C10G G17A G40A C42U the self-cleavage was 0.02.
In the case of G1C G29U U38A, the self-cleavage is reported as 0.07.
Variant C15U G36A G44U has a self-cleavage of 0.11.
Variant A4U C13A G22U C23A G30A A39U has a self-cleavage of 0.1.
Work on C8U C10U C15A G30A C42G G44A yielded a self-cleavage of 0.05.
Variant G7A C8A C13U C46A has a self-cleavage of 0.81.
C10U G22U G29U showed a self-cleavage of 0.11.
With U9G G22C G30U G35C the self-cleavage was 0.02.
G2A U38C C45G gave a self-cleavage of 0.45.
Variant C13A G21C G36A U43C C46A has a self-cleavage of 0.03.
C15U G17A G27U showed a self-cleavage of 0.08.
G17A A25G A41U gave a self-cleavage of 0.05.
C15U A25G U43C showed a self-cleavage of 0.14.
Variant C13U A16G G19C has a self-cleavage of 0.03.
For G1U C13A A14G G21C G40U A41U, the self-cleavage was 0.01.
G5C G17U G40A gave a self-cleavage of 0.03.
In the case of G2U A11G A26C G44A, the self-cleavage is reported as 0.02.
For C15A U20A G22A, the self-cleavage was 0.07.
A4U C13A C18A U28C G35A G36U G40A C42A showed a self-cleavage of 0.01.
A11C G21C G22U G27U showed a self-cleavage of 0.01.
With G22U C23A U34A the self-cleavage was 0.75.
C3U U28A A41C showed a self-cleavage of 0.07.
For G1C A24C C42A, the self-cleavage was 0.02.
With G2U G29A G30A C31G U38A the self-cleavage was 0.
A14G U34C C37U gave a self-cleavage of 0.07.
In the case of G2A C10A C15A U20A G36A, the self-cleavage is reported as 0.05.
Work on G1A C10U C13U U28G yielded a self-cleavage of 0.08.
Work on G7C A11C A14U A24U A26U C31G G40U yielded a self-cleavage of 0.01.
In the case of U20A G29A C31U, the self-cleavage is reported as 0.34.
Work on G19U U20A A41U yielded a self-cleavage of 0.21.
Work on G5A G30C A39C yielded a self-cleavage of 0.02.
For A11G G35U G40C C46G, the self-cleavage was 0.
With A6U A14G G21U G40U C42G the self-cleavage was 0.01.
Work on G1U A6U C10A G30C yielded a self-cleavage of 0.03.
G7C A26C U28C A39G C45A showed a self-cleavage of 0.05.
Work on A12U G22U C31G yielded a self-cleavage of 0.02.
In the case of G1A A11C G44A, the self-cleavage is reported as 0.03.
A12U U20A G33C showed a self-cleavage of 0.01.
Work on U32G A39G C45A yielded a self-cleavage of 0.09.
For A14U U28A U34G G36A, the self-cleavage was 0.21.
In the case of G17U C18G A24U C37U C45A, the self-cleavage is reported as 0.02.
Work on U9A C23A C45A yielded a self-cleavage of 0.18.
A4G C8A U20A C23G C46A showed a self-cleavage of 0.12.
For C3U A24U A25U G33U, the self-cleavage was 0.11.
G1U A4U C13A C23G G30C gave a self-cleavage of 0.03.
In the case of C3U C31U G40A A41C, the self-cleavage is reported as 0.03.
Work on G2C A4G G7U G17A C18A G22U G30C U43A yielded a self-cleavage of 0.07.
G1C G35A G36U gave a self-cleavage of 0.04.
C3A G22C G29A gave a self-cleavage of 0.56.
G1U G30U U32G showed a self-cleavage of 0.05.
Variant A14U G17C A24U C37G C45U has a self-cleavage of 0.12.
In the case of G2U A14G U43A, the self-cleavage is reported as 0.05.
In the case of C10A G21U G40U, the self-cleavage is reported as 0.02.
A11C C13U G33U showed a self-cleavage of 0.04.
U9C C10U C13A C46A gave a self-cleavage of 0.03.
For G1C A12C G17U G21U G35U, the self-cleavage was 0.01.
G2A A12C C31G G35A A39C showed a self-cleavage of 0.01.
C13U G36A C45A showed a self-cleavage of 0.
G2U A4U A24U G40C showed a self-cleavage of 0.09.
With G33U A41G U43G the self-cleavage was 0.02.
G5U A14C G35U A39C showed a self-cleavage of 0.14.
For U9C C10A A14U G17U G19U, the self-cleavage was 0.01.
G7U G17U G27C showed a self-cleavage of 0.03.
With A11C U20C G22A C23A the self-cleavage was 0.03.
For G1A G36A C37U A41G, the self-cleavage was 0.08.
C3A A24U A41C U43G C45G gave a self-cleavage of 0.47.
In the case of G21A G29U G40U C45A, the self-cleavage is reported as 0.05.
Work on C8U U9C U28C yielded a self-cleavage of 0.23.
Work on A25U U28A A41C G44C yielded a self-cleavage of 0.07.
C31U G35C C42G showed a self-cleavage of 0.03.
C15G G29C C31U G36C gave a self-cleavage of 0.01.
U34G U38C G44A showed a self-cleavage of 0.01.
Variant C31G U38A C42U has a self-cleavage of 0.12.
In the case of A4G A6C A12C G19A G22A C37U, the self-cleavage is reported as 0.
Work on A6G G22C U34C yielded a self-cleavage of 0.1.
Work on G27A G30U G44C yielded a self-cleavage of 0.52.
For G27A G36C A39G, the self-cleavage was 0.05.
For U20G A25U G27U, the self-cleavage was 0.24.
For A12U A14G A16U G21C G33C U38G, the self-cleavage was 0.02.
With C13A G29C C42A the self-cleavage was 0.04.
For G2A C18G C31U, the self-cleavage was 0.07.
With A14C C15A G17A the self-cleavage was 0.04.
C13U G17U G19C G29A U34A G44A showed a self-cleavage of 0.03.
G2C G33A G35C G44A showed a self-cleavage of 0.05.
Variant C3A A14U G33U U34G has a self-cleavage of 0.04.
In the case of G1U C8G C13U G40U, the self-cleavage is reported as 0.06.
Work on C15U G19U G36C yielded a self-cleavage of 0.05.
Variant A4U C18A U28G U34C has a self-cleavage of 0.01.
C3A U28A C31G G35C gave a self-cleavage of 0.1.
A4G A14C C42U gave a self-cleavage of 0.11.
G1A A39G C42U gave a self-cleavage of 0.06.
With A24G U32G A41C C46G the self-cleavage was 0.01.
With C13A A14U C37G the self-cleavage was 0.01.
In the case of C15A G19U G36A U43A, the self-cleavage is reported as 0.04.
In the case of C10A C31G U32G G36U, the self-cleavage is reported as 0.04.
Work on U9G A11U G21C A41G yielded a self-cleavage of 0.
G2U G19A A39C U43A showed a self-cleavage of 0.04.
Variant A12U G19C C23G G30A C37G has a self-cleavage of 0.01.
In the case of G5C A6C A14G C23U, the self-cleavage is reported as 0.09.
Work on G5C C18A C31A G36A yielded a self-cleavage of 0.05.
In the case of C8U C37A C42A, the self-cleavage is reported as 0.04.
Variant A26G G30A G36C A39G has a self-cleavage of 0.05.
Variant G22U C23A A39C has a self-cleavage of 0.04.
U9C G33C C37G showed a self-cleavage of 0.02.
A4U A16C C18A U32G U34C showed a self-cleavage of 0.05.
With G2U G19C G27C C42A the self-cleavage was 0.01.
For G1C C10G C18A A24U G40A, the self-cleavage was 0.01.
Variant C13A U32G G36C C42A has a self-cleavage of 0.02.
A4G G5U A6G G30U G44C gave a self-cleavage of 0.03.
For C3U A4G C46G, the self-cleavage was 0.05.
In the case of U9C A12C C13U C23G U34G C45G, the self-cleavage is reported as 0.01.
Work on G2A G22A C31U yielded a self-cleavage of 0.2.
With C8A G33A C37A the self-cleavage was 0.04.
Work on G5C C8G A24C yielded a self-cleavage of 0.04.
A4C C42A C46U showed a self-cleavage of 0.04.
A11G G22U A24U C42A showed a self-cleavage of 0.02.
A6U G17U G21A U34A G35U G40C showed a self-cleavage of 0.02.
Variant A4U G21U G36A has a self-cleavage of 0.14.
With G27A C42G U43A the self-cleavage was 0.06.
A6G A11G C15A U34A showed a self-cleavage of 0.03.
For G2A C8G C13U U34C, the self-cleavage was 0.15.
G2U A11C G35U gave a self-cleavage of 0.01.
A12C A24G G33A C45G showed a self-cleavage of 0.01.
A11U A14U G30A G40C showed a self-cleavage of 0.04.
A12U G17U G19C gave a self-cleavage of 0.1.
G19A C37A C45U gave a self-cleavage of 0.05.
G21U U38C G40A gave a self-cleavage of 0.11.
For A6C A12G G19A C42G, the self-cleavage was 0.03.
C15U G17C U20G G35U showed a self-cleavage of 0.02.
Variant A11U G19A G40C has a self-cleavage of 0.02.
Work on G27U U28C G36A C45U yielded a self-cleavage of 0.11.
U9G U32G A41G showed a self-cleavage of 0.05.
Work on C13U A24U G29A G30U C31G yielded a self-cleavage of 0.02.
For G1C C3G G17A, the self-cleavage was 0.1.
For G21U G29C A39C, the self-cleavage was 0.03.
A12U C15A C23U showed a self-cleavage of 0.02.
For A4C G19C C23A U28G G44U, the self-cleavage was 0.03.
In the case of C15A G30A U32G G33A C42A, the self-cleavage is reported as 0.05.
For A4G G21C A39U, the self-cleavage was 0.27.
With G7A A26C G29A G33U A41U the self-cleavage was 0.02.
Variant C8G U9C G36A has a self-cleavage of 0.05.
For A11U C15A C18U G22A C42A, the self-cleavage was 0.02.
G1C C15U C18A G21A G30U gave a self-cleavage of 0.01.
With G1C G2C C37G C45U the self-cleavage was 0.04.
Variant G2C G27U C31G has a self-cleavage of 0.11.
In the case of A4U C18U U43A, the self-cleavage is reported as 0.19.
For A14G A26U C31G U34G, the self-cleavage was 0.01.
Work on A11G U32G G36A yielded a self-cleavage of 0.01.
G7A C15U U34G showed a self-cleavage of 0.21.
Variant G1C A14G C18U G21U U28C has a self-cleavage of 0.1.
In the case of G7A G19U C23G G29C C45A, the self-cleavage is reported as 0.07.
For G2U A11G G21C, the self-cleavage was 0.01.
In the case of U9A A12C A24C U38A C45U, the self-cleavage is reported as 0.
In the case of G22U G27A G36U G44A, the self-cleavage is reported as 0.1.
C8G G27C G30A G35U showed a self-cleavage of 0.03.
For G7A A25U U43C, the self-cleavage was 0.25.
G30A C37A U38C showed a self-cleavage of 0.03.
In the case of G5A C23G C31G C46U, the self-cleavage is reported as 0.04.
For C18U U20G C31A U38C U43C, the self-cleavage was 0.
In the case of G1U G29A A39U, the self-cleavage is reported as 0.34.
For C8U A12C A14C A26C G29C, the self-cleavage was 0.09.
In the case of G2C C13G C15U A16G, the self-cleavage is reported as 0.01.
For C18A U28A U32C C37A C42U, the self-cleavage was 0.
